The text below walks through data of US20180169228A1 (ZHUHAI ESSEX BIO PHARMACEUTICAL, published 2018).

In the experiment the target is T1, human VEGF165 (Human vascular endothelial growth factor 165, hVEGF165) (human, UniProt P15692 207-395).
T1 sequence: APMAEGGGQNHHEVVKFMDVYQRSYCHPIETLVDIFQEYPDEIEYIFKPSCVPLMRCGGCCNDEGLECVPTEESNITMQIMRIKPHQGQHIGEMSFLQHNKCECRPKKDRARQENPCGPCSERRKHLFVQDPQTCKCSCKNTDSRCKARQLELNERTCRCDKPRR
The experiment is described as follows: cell-based or functional assay.

B1: heavy-chain antibody A69451 (Fc fusion)
heavy: QVKLEESGGGLVQAGGSLRLSCAASGRTFSSYRLGWFRQAPGKEREFVAAISWKDDTTYYADSVKGRFTISRDNAKNTVYLQMNSLTPEDSAVYSCAARGYSRSWNPWSEYDYWGQGTRVTVSS[letters of human IgG1 Fc left out]
Consider B1, for which the “EC50 of HUVEC cell proliferation inhibition assay” value came to 0.557 mg/L.

B2: heavy-chain antibody A80730 (Fc fusion)
heavy: QVQLVESGGGLVQAGGSLRLSCAASGRAPETYAMGWFRQAPGKEREFVAHIIVTGDRTYYADSVKGRFTISRNNAKNTVYLQMNSLKPEDTAVYYCAADRSARWEPGTHYWGQGTQVTVSS[letters of human IgG1 Fc left out]
As to B2, the “EC50 of HUVEC cell proliferation inhibition assay” value came out at 0.211 mg/L.

B3: heavy-chain antibody A80723 (Fc fusion)
heavy: DVQLVESGGGLVQAGDSLRLSCAYSGATFSNNVMGWFRQAPGRARDFVAAFNGWSSVTEYADSVKGRFFVSRDNDKSTMYLQMINLKPDDTAVYFCAAGRRWRANRETHYDYWGQGTQVTVSS[letters of human IgG1 Fc left out]
For the molecule B3, the “EC50 of HUVEC cell proliferation inhibition assay” value was found to be 0.114 mg/L.

B4: heavy-chain antibody A80890 (Fc fusion)
heavy: QVKLEESGGGLVQAGGSLRLSCAASGSISHVPNMHWYRQAPGQKRQLVATITRGGNTMYADSVKGRFTISRENAKNTIYLQMTTLKPEDTAVYYCNADVWSSALFKYVEYWGQGTQVTVSS[letters of human IgG1 Fc left out]
Take B4: the “EC50 of HUVEC cell proliferation inhibition assay” value worked out at 0.642 mg/L.

B5: heavy-chain antibody A69462 (Fc fusion)
heavy: QVQLVESGGGLVQAGGSLRLSCTDSGRTFGAYNMGWFRQAPGKEREFVAAINWSGISTYYTDSVKGRFTISRDNAKNTVCLQMNNLSPEDTAVYYCAANRGGNYEKVYLYNNWGQGTQVTVSS[letters of human IgG1 Fc left out]
With B5, the “EC50 of HUVEC cell proliferation inhibition assay” value is 0.0632 mg/L.

B6: heavy-chain antibody A60724 (Fc fusion)
heavy: QVQLVESGGGLVQAGGSLRLSCTASGRTFGAYNMGWFRQTPGKEREFVAAINWSGISTYYTDSVKGRFTISRDNAKNTVYLQMNNLSPEDTAVYYCAANRGGNYEKVYLYNNWGQGTQVTVSS[letters of human IgG1 Fc left out]
In the case of B6, the “EC50 of HUVEC cell proliferation inhibition assay” value was 0.0267 mg/L.

B7: heavy-chain antibody A80744 (Fc fusion)
heavy: AVQLVESGGGLVQAGGSLRLSCAASGLNFRTYTIGWFRQAPGKEREFIVGITWGGGIIDSIDSMKGRATISRDNAENTVYLQMNSLKPEDTAVYSCAAGRNTGGYTRLWRSYDYWGQGTQVTVSS[letters of human IgG1 Fc left out]
For the molecule B7, the “EC50 of HUVEC cell proliferation inhibition assay” value was found to be 0.176 mg/L.

B8: heavy-chain antibody A69458 (Fc fusion)
heavy: DVQLVDSGGGLVQPGGSLTLSCVLSGRPFSYYAVSWFRQAPGGEREFVAGISRSGGSVNFAGFVKGRFTVSRDNAKSAVNLQMNSLKREDTAVYYCAADTNVYASATLSNYAYWGQGTQVTVSS[letters of human IgG1 Fc left out]
As to B8, the “EC50 of HUVEC cell proliferation inhibition assay” value is 0.12 mg/L.

B9: heavy-chain antibody A80726 (Fc fusion)
heavy: QVKLEESGGGLVQAGDSLRLSCTASGGTYSSGVMGWFRQAPGKERDFVASINWSGVTDYSDSVKGRFFISRDTAKSTVYLHMFSLKADDTAVYFCAAGSRWRANSGRHYDYWGQGTQVTVSS[letters of human IgG1 Fc left out]
As for B9, the “EC50 of HUVEC cell proliferation inhibition assay” value was 0.122 mg/L.

B10: heavy-chain antibody A80740 (Fc fusion)
heavy: EVQLVDSGGGLVQAGGSLRLSCAASGSISYVPDMHWYRQAPGQQRQLVATITRGGNTMYADSVKGRFTISRDNAKNTVYLQMTSLKPEDTAVYYCNADVWSSVLFKLVEYWGQGTQVTVSS[letters of human IgG1 Fc left out]
Take B10: the “EC50 of HUVEC cell proliferation inhibition assay” value was determined as 0.79 mg/L.

B11: heavy-chain antibody A69452 (Fc fusion)
heavy: GVQLVESGGGWVQAGDSLRLSCTASGSIPYVPDMHWYRQAPGQQRQLVATITRGGNTMYADSVKGRFTISRDNAKNTVYLQMTSLKPEDTAVYYCNADVWSSVALKLVEYWGQGIQVTVSS[letters of human IgG1 Fc left out]
Take B11: the “EC50 of HUVEC cell proliferation inhibition assay” value is 0.45 mg/L.

B12: heavy-chain antibody A69457 (Fc fusion)
heavy: QVKLEESGGGLVQAGGSLRLSCAASGSIPYVPDMHWYRQAPGQQRQLVATITRGGNTMYADSVKGRFTISRDNAKNTVYLQMTSLKPEDTAVYYCNADVWSSVALKLVEYWGQGIQVTVSS[letters of human IgG1 Fc left out]
Consider B12, for which the “EC50 of HUVEC cell proliferation inhibition assay” value was 0.46 mg/L.

B13: heavy-chain antibody A80887 (Fc fusion)
heavy: QVKLEESGGGLVQTGGSLRLSCAASGRTFSSYAMGWFRQAPGKEREFVAAISWSGGHTYYADSAVDSVRGRFTISRGNAKNTVYLQMNNLKPEDTAVYYCAADFGTRLRFTTNDYQYWGQGTQVTVSS[letters of human IgG1 Fc left out]
With B13, the “EC50 of HUVEC cell proliferation inhibition assay” value amounted to 0.0588 mg/L.
